Measurements published in the antibiotic and cytotoxicity screens of Wong et al. (2023).
This is one part of the list.

Each compound was assayed on S. aureus RN4220 (assay: growth inhibition call (relative growth <= 0.2)). Conditions: 50 µM.

Growth inhibition call, inactive:
C[C@@H]1CN([C@H](C)CO)C(=O)c2cccc(NC(=O)c3ccc(-c4nccs4)cc3)c2O[C@H]1CN(C)C(=O)Nc1ccc2c(c1)OCO2
COCCCNC(=O)[C@@]1(Cc2ccccc2I)c2ccccc2C(=O)N(Cc2ccccc2OC)[C@H]1c1ccc(CO)cc1
CCCNS(=O)(=O)c1c[nH]c(C(=O)OC)c1
Cc1ccc(S(=O)(=O)Nc2ccc3c(c2)C(=O)N([C@H](C)CO)C[C@H](C)[C@H](CN(C)C(=O)Cc2ccccc2)OCCCC[C@H](C)O3)cc1
C[C@@H]1CN([C@@H](C)CO)C(=O)c2cc(NC(=O)Cc3ccccc3)ccc2O[C@@H](C)CCCCO[C@@H]1CN(C)Cc1ccccc1
C[C@@H]1CCCCO[C@H](CN(C)Cc2ccc(C(=O)O)cc2)[C@H](C)CN([C@H](C)CO)C(=O)c2cc(NC(=O)Nc3cccc4ccccc34)ccc2O1
CC(C)NC(=O)N(C)C[C@H]1Oc2ccc(NS(=O)(=O)c3ccc(F)cc3)cc2C(=O)N([C@@H](C)CO)C[C@H]1C
C[C@H]1CN([C@@H](C)CO)C(=O)Cc2cc(NC(=O)NC3CCCCC3)ccc2O[C@@H]1CN(C)C(=O)Nc1cccc2ccccc12
C[C@H]1CN([C@@H](C)CO)C(=O)c2cc(NC(=O)Nc3ccc(F)cc3)ccc2O[C@H]1CN(C)Cc1ccc(Cl)c(Cl)c1
C[C@@H]1CCCCO[C@@H](CN(C)C(=O)Cc2ccccc2)[C@@H](C)CN([C@@H](C)CO)C(=O)c2cc(NS(=O)(=O)c3ccc(Cl)cc3)ccc2O1
Cc1noc(C)c1NC(=O)Nc1cccc2c1O[C@@H](CN(C)Cc1ccc(Cl)c(Cl)c1)[C@@H](C)CN([C@@H](C)CO)C2=O
COc1cccc(S(=O)(=O)Nc2ccc3c(c2)[C@@H]2C[C@@H](CC(=O)NCCc4ccccc4)O[C@@H](CO)[C@@H]2O3)c1
C[C@@H]1CCCCO[C@H](CN(C)S(=O)(=O)c2ccc(Cl)cc2)[C@H](C)CN([C@@H](C)CO)C(=O)c2cc(NC(=O)Nc3ccc(F)cc3)ccc2O1
O=C(NC1CC1)[C@@H]1c2ccccc2C(=O)N(Cc2cc(C(F)(F)F)cc(C(F)(F)F)c2)[C@H]1c1ccc(CO)cc1
COc1ccc(NC(=O)Nc2ccc3c(c2)C(=O)N([C@H](C)CO)C[C@H](C)[C@@H](CN(C)C(=O)CCC(F)(F)F)OCCCC[C@@H](C)O3)cc1
O=C(C1=C[C@@H](c2ccc(Br)cc2)C[C@@H](OCc2ccc(CO)cc2)O1)N1CCN(Cc2ccccc2)CC1
C[C@H](CO)N1C[C@H](C)[C@@H](CN(C)Cc2ccncc2)Oc2ccc(NC(=O)Cn3cnnn3)cc2C1=O
Cc1noc(C)c1NC(=O)Nc1ccc2c(c1)C(=O)N([C@@H](C)CO)C[C@@H](C)[C@@H](CN(C)C(=O)Nc1ccc(F)cc1)OCCCC[C@@H](C)O2
C[C@H]1CN([C@@H](C)CO)C(=O)c2cc(C#Cc3ccc(F)cc3)cnc2O[C@H]1CN(C)Cc1ccccn1
CC(C)NC(=O)N(C)C[C@H]1Oc2c(NS(=O)(=O)c3ccc(F)cc3)cccc2C(=O)N([C@H](C)CO)C[C@@H]1C
C[C@H](CO)N1C[C@H](C)[C@H](CN(C)S(=O)(=O)c2cn(C)cn2)Oc2ccc(NC(=O)CCCN(C)C)cc2CC1=O
C[C@H]1CCCCO[C@H](CN(C)C(=O)CCC(F)(F)F)[C@@H](C)CN([C@@H](C)CO)C(=O)c2cc(NS(=O)(=O)c3ccccc3)ccc2O1
COc1cc(O)c2c(=O)cc(C)oc2c1CC=C(C)C
C[C@H](CO)N1C[C@H](C)[C@@H](CN(C)C(=O)Nc2ccc(C(F)(F)F)cc2)OCCCC[C@H](C)Oc2ccc(NS(=O)(=O)c3ccc(F)cc3)cc2C1=O
Cc1noc(C)c1S(=O)(=O)Nc1ccc2c(c1)C(=O)N([C@H](C)CO)C[C@@H](C)[C@H](CN(C)CC1CC1)O2
C[C@@H]1CN([C@H](C)CO)C(=O)c2cccc(NC(=O)C3CC3)c2O[C@H]1CN(C)S(=O)(=O)c1ccccc1
COc1ccc(-c2cnc3c(c2)C(=O)N([C@H](C)CO)C[C@H](C)[C@H](CN(C)S(=O)(=O)c2ccc(C#N)cc2)O3)cc1
C[C@@H]1CN([C@H](C)CO)C(=O)c2cc(C3=CCCC3)cnc2O[C@H]1CN(C)S(=O)(=O)c1cn(C)cn1
